Test results: PubChem BioAssay AID686978 (National Center for Advancing Translational Sciences (NCATS), 2013)
The whole screen tested about 420,000 compounds, of which about 64,000 (15%) were called active. Inconclusive means that the source gave no clear call. Such entries were picked first, then a sample of the others. Calls follow the shape of the dose curve; as a rule, active = well fitted inhibition curve with a large enough effect; inconclusive = small, poorly fitted or top-dose-only effect; inactive = flat fitted curve, though single readings scatter. No potency is given beside an inconclusive call; the fits are too rough.

Assay: qHTS for Inhibitors of human tyrosyl-DNA phosphodiesterase 1 (TDP1): qHTS in cells in absence of CPT; also: nearly all actives have a fitted effect of over 55% in size
Details: DT40 Tdp1-/- hTDP1 cells, no CPT, ATP luminescence, 48 h; activity change, negative = growth inhibition: at 46.2 µM (top of the series)
Summary of the method: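 Luminescent ATP content (CellTiter-Glo) served as the growth readout. Knockout chicken DT40 cells expressing human TDP1 were exposed to compounds without camptothecin for a minimum 48 hr at 37 °C.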
% is scaled to controls: 0 for no effect and ±100 for the full control effect; potency is read from the fitted curve at half-maximal effect; tags tell the direction and shape of the fitted curve.

SMILES | Potency | activity change, negative = growth inhibition
O=C(COCc1cc(-c2ccc3c(c2)OCO3)on1)Nc1cccnc1Cl | inactive | –
CC(C)NC(=O)CSc1nccc(-c2cccs2)n1 | inactive | –
Cc1ccc(NC(=O)NNc2cccc(Cl)n2)cc1 | inconclusive [inhibitor, single point] | –
COc1cc(C(=O)NCCC(=O)NC2CCC(C)CC2)cc(OC)c1OC (configuration not stated) | inactive | –
O=S(=O)(Nc1ccc(Cc2ccncc2)cc1)c1ccc(Cl)s1 | inconclusive [inhibitor, partial curve] | –
CN(C)CCNc1ncnc2c1ncn2[C@H]1CN(Cc2ccc(-c3ccccc3)cc2)C[C@@H](CO)O1 | active: 20.6 µM | –
O=C(CS(=O)CC(=O)Nc1cccnc1)Nc1ccc(F)cc1 (configuration not stated) | inactive | –
CC(C)NC(=O)CSCc1c(F)cccc1Cl | inactive | –
Cc1oc(-c2ccccc2NC(=O)C2CCC2)nc1CNC(=O)c1c(F)ccc(F)c1F | inactive | –
CCc1noc(C)c1C(=O)OCC(=O)c1ccc(NC(=O)CC(C)C)cc1 | active: 25.9 µM | –
COc1ccc(CNc2ncncc2-c2ccccc2CN(C)C)c(OC)c1 | inactive | –
CCOC(=O)C1CCN(S(=O)(=O)c2ccc(OC)c(Cl)c2)CC1 | inactive | –
COc1cccc(NC(=O)N2CCCC2C(=O)NCc2ccccc2F)c1 (configuration not stated) | inactive | –
Cc1ccc(C(=O)NCCc2csc(C)n2)cc1 | inactive | –
CCCSC1=C(C#N)C(c2cc(OC)ccc2OC)CC(=O)N1 (configuration not stated) | inconclusive [inhibitor, single point] | –
CCc1cccc(NC(=O)CN2CCCN(Cc3cccc(C)c3)S2(=O)=O)c1 | active: 29.1 µM | –
COc1cccc(-c2ccc(NC(=O)C3CCCN(CCCn4nc(C)cc4C)C3)cc2)c1 (configuration not stated) | inconclusive [inhibitor, single point] | –
CCOC(=O)/C(O)=C/c1ncc(C(F)(F)F)cc1Cl | inconclusive [inhibitor, single point] | –
CCOC(=O)c1ccc(Oc2nc(N(C)C)nc(N(C)C)n2)cc1 | inconclusive [inhibitor, single point] | –
CCC1(c2ccc(F)cc2)NC(=O)N(CC(=O)Nc2ccc(N3CCCCC3)cc2)C1=O (configuration not stated) | inconclusive [inhibitor, partial curve, poor fit] | –
COC(=O)c1cc2oc3ccccc3c2n1Cc1c(F)cccc1Cl | inactive | –
O=C(NCc1cccc(C(F)(F)F)c1)C1C(=O)Nc2ccccc2C(=O)N1Cc1ccccc1 (configuration not stated) | inconclusive [inhibitor, partial curve] | –
CC(C)CCN1CCC[C@]2(N[C@H](c3ccccc3)[C@@H]3C(=O)N(Cc4ccccc4)C(=O)[C@@H]32)C1=O | inconclusive [inhibitor, partial curve] | –
COC(=O)C(NC(=O)c1ccccc1)c1ccccc1 (configuration not stated) | inactive | –

SMILES | Potency | activity change, negative = growth inhibition
COc1ccc(N2CCN(C(c3ccccc3OC)c3nnnn3Cc3ccco3)CC2)cc1 (configuration not stated) | inconclusive [inhibitor, single point] | –
CCCCCn1c(Sc2ncccn2)nc2c1c(=O)[nH]c(=O)n2C | inconclusive [inhibitor, partial curve, poor fit] | –
CCN(CC(=O)Nc1ccc2c(c1)OC(F)(F)O2)Cc1nc2ccccc2c(=O)[nH]1 | inconclusive [inhibitor, single point] | –
CCN(CC)C(=O)C1CCCN(c2ncnc3onc(C)c23)C1 (configuration not stated) | inconclusive [inhibitor, single point] | –
CCOc1ccc2nc(NCCNC(=O)c3cc(OC)c(OC)c(OC)c3)c(C#N)cc2c1 | inconclusive [inhibitor, partial curve, poor fit] | –
COC(=O)c1sc(NC(=O)CN2CCN(c3cccc(Cl)c3)CC2)c(C(=O)OC)c1C | active: 32.6 µM | –
CCN1CCN(C(=O)c2ccc(-c3nc4ccccc4s3)s2)CC1 | inconclusive [inhibitor, single point] | –
Cc1nnc(SCC(=O)NCCOc2ccc(Cl)cc2)n1-c1ccccc1 | inactive | –
Cc1ccc(Cl)cc1N(C)C(=O)c1cnc(N2CCOCC2)c2ccccc12 | inconclusive [inhibitor, single point] | –
C/C(=N\NC(=O)COc1ccc(C)cc1C(C)C)c1ccc(-n2ccnc2)cc1 | inconclusive [inhibitor, single point] | –
Cc1cc(C(=O)CN2C(=O)C(=O)N(C3CCCC3)C2=O)c(C)n1-c1ccc(F)cc1 | inconclusive [inhibitor, single point] | –
Cc1ccc(Cn2nnc3c(=O)[nH]c(C(=O)NCc4ccco4)nc32)cc1 | inconclusive [inhibitor, single point] | –
c1cncc(CNc2ncnc3sc4c(c23)CCC4)c1 | inconclusive [inhibitor, single point] | –
O=C(Nc1ccccc1-c1ccccc1)c1ccc(Cl)c([N+](=O)[O-])c1 | inconclusive [inhibitor, full curve] | –
COCCCNC(=O)CCCCCNS(=O)(=O)c1ccc(Br)cc1 | inactive | –
CCC(C(=O)Nc1ccc2c(c1)OCCO2)c1ccccc1 (configuration not stated) | inactive | –
COc1ccc(CCN(Cc2cccs2)S(=O)(=O)c2ccc(-n3cnnn3)cc2)cc1OC | inconclusive [inhibitor, single point] | –
COc1cccc(CN(C)CC(=O)Nc2c(C)cccc2C(C)C)c1 | inconclusive [inhibitor, single point] | –
Cc1[nH]c2ccccc2c1C(=O)C(=O)N1CCN(C)CC1 | inactive | –
COC(=O)c1ccc(Cn2cnc3c(cnn3-c3ccc(F)cc3)c2=O)o1 | inconclusive [inhibitor, single point] | –
CC(C)N(Cc1nc(-c2ccc(Cl)cc2)no1)C(=O)CCCN1C(=O)c2ccccc2C1=O | inactive | –
CC(=O)N1CCCc2ccc(NS(=O)(=O)c3ccccc3)cc21 | inconclusive [inhibitor, partial curve] | –
COc1cccc(/C=c2/s/c(=C(\C#N)C(=O)N3CCOCC3)n(-c3ccccc3)c2=O)c1 | – | inconclusive: -35.2% [inhibitor]
CCOc1ccc2nc3sc(C(=O)N4CCOCC4)c(N)c3cc2c1 | inconclusive [inhibitor, single point] | –

SMILES | Potency | activity change, negative = growth inhibition
COc1ccc(-c2nn(-c3ccccc3)cc2/C=C2/SC(=S)N(CCCC(=O)O)C2=O)c(C)c1 | inconclusive [inhibitor, single point] | –
COc1ccc2[nH]c(C)cc(=O)c2c1 | inconclusive [inhibitor, single point] | –
Nc1c(Br)cc(Br)c2c1[nH]c(=O)c1ccccc12 | inconclusive [inhibitor, single point] | –
COc1cccc(/C=C/c2ccc3cccc(O)c3n2)c1OC | active: 16.4 µM | –
CC(NC(=O)c1sc2ncccc2c1-n1cccc1)c1ccccc1 (configuration not stated) | active: 23.1 µM | –
CCOC(=O)c1cnc(SC)nc1Oc1cccc(NS(=O)(=O)c2ccc(F)cc2)c1 | inconclusive [inhibitor, single point] | –
Cc1ccc(S(=O)(=O)Nc2cccc(S(=O)(=O)N3CCCC3)c2)cc1C | inconclusive [inhibitor, single point] | –
CC(O)CNCCCOc1ccccc1OCc1ccccc1 (configuration not stated) | inconclusive [inhibitor, single point] | –
COc1ccccc1OCC(=O)Nc1cccc(-c2nnc(-c3ccco3)o2)c1 | active: 20.6 µM | –
COc1ccccc1CC(=O)NC1CCCc2ccccc21 (configuration not stated) | inconclusive [inhibitor, single point] | –
S=C(Nc1cc(Cl)ccc1Oc1ccccc1)N1CCN(c2ccccn2)CC1 | inconclusive [inhibitor, single point] | –
COc1ccc(C2c3[nH]c4ccccc4c3CCN2C(=O)c2cc3ncccn3n2)c(F)c1 (configuration not stated) | active: 20.6 µM | –
Cc1ccc(Cn2c(C(C)Nc3nc(-c4ccc(Cl)c([N+](=O)[O-])c4)cs3)nc3cc(C(F)(F)F)ccc32)cc1 (configuration not stated) | inconclusive [inhibitor, single point] | –
Cc1cc(C)nc(SCC(=O)c2ccc(Cl)cc2)n1 | inactive | –
Cc1cc(NC(=O)COC(=O)c2oc3c(Cl)cccc3c2C)no1 | inactive | –
O=C(NCC(c1cccnc1)N1CCN(Cc2ccccc2)CC1)C(=O)Nc1cccc(F)c1 (configuration not stated) | active: 23.1 µM | –
CCCN1CNc2c(c(=O)[nH]c(=S)n2CCc2ccc(OC)cc2)C1 | inactive | –
O=C(Nc1ccccc1C(=O)O)c1ccc(Br)o1 | inactive | –
Clc1ccc(-n2cccc2CN2CCOc3ccc(CN4CCOCC4)cc3C2)nc1 | inconclusive [inhibitor, single point] | –
Cn1c(=O)c2c(-c3ccccc3)n(N3CCOCC3)cc2n(C)c1=O | inconclusive [inhibitor, single point] | –
CC1(C)Cc2c(sc3nc(N/N=C/c4ccccc4)[nH]c(=O)c23)CO1 | inconclusive [inhibitor, partial curve] | –
O=c1c(Cl)c2oc3ccccc3nc-2c2ccccc12 | inconclusive [inhibitor, single point] | –
O=C(Nc1ccc2c(c1)OCCO2)C1CCN(C(=O)c2ccccc2)CC1 | inconclusive [inhibitor, partial curve] | –
COC(=O)c1ccccc1NC(=O)C1CCN(S(=O)(=O)c2cc(C)ccc2OC)CC1 | inconclusive [inhibitor, single point] | –
